Test results as given in PubChem BioAssay AID1508624 (National Center for Advancing Translational Sciences (NCATS), 2021).
Among all 48,000 compounds or so, about 120 (0.25%) were called active. About 4% were inconclusive and are not listed. Calls come from the whole dose curve; as a rule, active = well fitted activation curve with a large enough effect; inconclusive = small, poorly fitted or top-dose-only effect, or another doubt; inactive = no such curve, though single readings can be large or run the other way. Some of the results follow.

Assay: Primary qHTS for Identification of Small Molecule Activators of Huntingtin-Antisense Promoter Activity; note: nearly all actives have a fitted effect of over 55% in size
Details: HEK293 HTT-AS promoter firefly luciferase reporter, 24 h; series mostly up to 57.5 µM; activity change, positive = activation: at the top concentration
Outline: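 Firefly luciferase signal from promoter-reporter HEK293 cells was scaled between vehicle (0%) and zero RLU (-100%). Compounds were tested at final concentrations of up to 57.5 uM over 24 h at 37 degrees C. PTC124 at 50 uM final served as control inhibitor.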

Activity change, positive = activation, inactive:
O=C(Nc1ccccc1Cl)C1CCN(c2nc3ccccc3[nH]2)CC1 -7.76%, COc1cccc(NC(=O)CSCn2nnc3c(=O)[nH]c(Cc4ccc(F)cc4)nc32)c1 15.6%, CN(Cc1ccc(F)cc1)S(=O)(=O)c1nnc(NC(=O)c2ccc(F)cc2)s1 -38.3%, COC(=O)c1ccc2c(c1)N(CC(=O)Nc1cccc(C(F)(F)F)c1)C(=O)c1ccccc1S2 -14.6%, O=C(CSc1nc2c([nH]c3ccccc32)c(=O)n1-c1ccccc1F)Nc1ccccc1C(F)(F)F -43.3%, COc1ccc(NC(=O)C2CCCN(S(=O)(=O)c3ccc4c(c3)CCCN4C(C)=O)C2)cc1 (centres undefined) -28.2%, Cc1ccccc1-n1c(=O)c2c3c(sc2n2cnnc12)CCCC3 7.92% [at 11.5 µM, percent change from vehicle, -100% = no light], COc1ccc(CNC(=O)C2CCN(c3nnc(-n4cccc4CNc4ccc(C)cc4)s3)CC2)c(OC)c1 -32.1%, Cc1ccc(S(=O)(=O)c2nc(-c3cccc(C)c3)oc2N2CCCCC2)cc1 -0.52%, O=S(=O)(Nc1cccc(-c2ccc(N3CCCC3)nn2)c1)c1ccc(F)cc1F 15.5%, COc1ccc(NC(=O)CSc2c3c(nc4ccccc24)CCC3)c(OC)c1 -10.9%, COc1ccc(N2CCN(C(=O)CN(C)S(=O)(=O)c3cccs3)CC2)cc1 -7.13%, COc1ccc(Cn2ccnc2SCC(=O)Nc2cc(C(F)(F)F)ccc2Cl)cc1 -0.536%, COc1cccc(Nc2sc(C(=O)c3ccc(F)cc3)c(N)c2C(=O)NCc2ccc(C)cc2)c1 -49.4%, COc1ccc(-c2cn3nc(N4CCCC(C(=O)NCc5ccccc5C)C4)sc3n2)cc1 (centres undefined) 3.05%, CCOC(=O)c1ccccc1NC(=O)c1sc2ccccc2c1Cl 20.6%, CCN(CC)C(=O)Cn1c(=O)cc(C)c2c(C)nn(C)c21 12.9%, COc1ccc(CNC(=O)c2cc3c(=O)n4cccc(C)c4nc3s2)cc1 -1.44%, Cc1c(C(=O)Nc2ccc(F)c(F)c2)oc2ccc(S(=O)(=O)N(C)C3CCCCC3)cc12 -35.3%, CCOC(=O)c1ccc(NC(=O)C(C)N(c2ccc(OCC)cc2)S(C)(=O)=O)cc1 (centres undefined) -11.7%, CCOC(=O)c1[nH]c(C)c(CCC(=O)NC(C)c2ccccc2)c1C (centres undefined) -8.29%, CCN(CC)CCn1c2c(c(SCC(=O)Nc3cccc(C(F)(F)F)c3)nc1=O)CCC2 -19.4%, Cc1cccc(CNC(=O)Cc2ccc(NC(=O)N3CCCCc4ccccc43)cc2)c1 -16.7%, COc1ccc(CCNC(=O)CCCCn2c(=O)c3ccccc3n(Cc3ccc(Cl)cc3)c2=O)cc1OC -37.3%, COc1cccc(CNC(=O)c2oc3ccc4c(c3c2C)C(=O)CC(C)(C)O4)c1OC 26.9%, O=C(Nc1ccc(F)cc1)C1CCCN(c2ncnc3c2nc2n3CCCCC2)C1 (centres undefined) -22.1%, Cc1ccc(N(C)C(=O)Cn2cc(S(=O)(=O)N3CCCC3)c(S(=O)(=O)N3CCCC3)c2)cc1 -5.79% [at 11.5 µM, percent change from vehicle, -100% = no light], COc1cccc(-c2nc(CS(=O)(=O)CC(=O)NCCc3ccc(OC)c(OC)c3)c(C)o2)c1 -19.1%, Cc1ccc(C(=O)Nc2nc(-c3nnn(-c4cccc(Cl)c4C)c3C)ns2)cc1C -27%, COc1ccc(NS(=O)(=O)c2ccc3c(c2)CC(C)N3C(C)=O)c(OC)c1 (centres undefined) -23.8%, Cn1c(=O)c2c(n3ncnc13)NC(=O)CC2c1cccc(F)c1 (centres undefined) -9.19%, CCOC(=O)C1=C(CN2CCN(c3cccc(OC)c3)CC2)NC(=O)NC1c1ccc(OC)cc1 (centres undefined) -18.9%, COc1ccc(NC(=O)c2oc3c(c2C)-c2nn(Cc4ccccc4Cl)cc2CC3)cc1OC -37.7%, Cc1ccc(-n2c(=O)c3c(cnn3C)n(CC(=O)Nc3c(C)cccc3C)c2=O)cc1 -17.9%, C=Cc1ccc(CSc2nnc(C)n3c2cc2occc23)cc1 -7.83%, CC(C)c1ccccc1NC(=O)CN(c1ccccc1)S(=O)(=O)N(C)C -3.69%, Cc1ccc2c(c1)CC(C)N2S(=O)(=O)c1nnc(NC(=O)c2ccccc2F)s1 (centres undefined) -35.8%, O=C(Cn1ccn(-c2cccc(Cl)c2)c(=O)c1=O)c1ccc(F)cc1 -5.71%, O=C(NCCCN1CCN(c2ccc(F)cc2)CC1)c1sc2ncccc2c1-n1cccc1 -13.3%, CCOc1ccc(CNC(=O)c2[nH]c3ccccc3c2Sc2ccc(C)cc2)cc1 -3.55%, Cc1ccc(NC(=O)CCS(=O)(=O)c2ccc(Br)cc2)c(C)c1 -10.7%, CCOC(=O)c1cc(-c2ccccc2)n(CCC(=O)Nc2ccc(C)cc2Cl)c1C -16.4%, CSc1ccc(C(=O)c2[nH]c(=O)[nH]c2C)cc1 23.2%, COc1ccc(OC)c(S(=O)(=O)N2Cc3ccccc3CC2C(=O)Nc2ccc(Cl)cc2)c1 (centres undefined) -32.9%, Cc1ccc2c(c1)C(=O)C(=O)N2Cc1ccc(OC(C)C)cc1 -41.6%, CCOc1ccc(-c2nn(-c3ccccc3)cc2C2NC(=O)NC(C)=C2C(=O)OC(C)C)cc1C (centres undefined) -33.3%, Cc1ccc(-n2nc(CO)c(C(=O)NCCCCc3ccccc3)n2)cc1 -7.26%, Cc1cc(C)cc(NC(=O)CCS(=O)(=O)c2ccc3nc(C)sc3c2)c1 -18%, O=C1C(c2ccc(F)cc2)N(Cc2ccccc2Cl)C(=O)CN1C1CCCCC1 (centres undefined) -31.5%, CC1=C(c2ccc(C)c(C)c2)S(=O)(=O)N=C1N1CCC(C(=O)Nc2cccc(F)c2)CC1 -24.9%, COc1ccccc1NC(=O)Cn1c(=O)n(-c2cccc(Cl)c2)c(=O)c2c1c1cc(C)ccc1n2C -14.8%, Cc1cc(C)cc(Nc2nnc(-n3nc(C)cc3C)c3ccccc23)c1 -16.9%, CCc1ccccc1NC(=O)CSc1ncc(S(=O)(=O)c2ccccc2)c(=O)[nH]1 -3.55%, Cc1cccc(OCC(=O)Nc2ccc(Cl)c(-c3nc4ccccc4[nH]3)c2)c1 -14.4%, CC(C)(S)[C@@H](N)C(=O)O -92.8%, Cc1ccc2c(CC(=O)N(Cc3ccc(Cl)cc3)Cc3ccco3)coc2c1 -30.6%, Cc1ccccc1Nc1cc(C(=O)NCCc2ccc(Cl)cc2)c2ccccc2n1 -39.7%, COc1cccc(C(=O)Nc2c(C(=O)c3ccc(F)cc3)oc3ccccc23)c1 -10.3%, COc1cc(C2c3c(oc4ccc(C)cc4c3=O)C(=O)N2Cc2ccccc2)ccc1O (centres undefined) -11.6%
